Assay results taken from the antibiotic and cytotoxicity screens of Wong et al. (2023).
Some of the results follow.

Legend:
HSkMC = human skeletal muscle cells; test: cytotoxicity call (relative viability < 0.9); conditions: 10 µM
HepG2 = test: cytotoxicity call (relative viability < 0.9); conditions: 10 µM
S. aureus RN4220 = test: growth inhibition call (relative growth <= 0.2); conditions: 50 µM

SMILES: C[C@@H]1CCCCO[C@@H](CN(C)C(=O)CCCN(C)C)[C@H](C)CN([C@H](C)CO)C(=O)c2cc(NC(=O)Nc3ccc(F)cc3)ccc2O1
- cytotoxicity call (HSkMC): inactive
- cytotoxicity call (HepG2): inactive
- growth inhibition call (S. aureus RN4220): inactive

SMILES: C[C@H](CO)N1C[C@H](C)[C@H](CN(C)S(=O)(=O)c2ccc(Cl)cc2)OCCCC[C@H](C)Oc2ccc(NS(=O)(=O)c3ccc(F)cc3)cc2C1=O
- cytotoxicity call (HSkMC): inactive
- cytotoxicity call (HepG2): active
- growth inhibition call (S. aureus RN4220): inactive

SMILES: C=CCOC[C@H](O)Cn1c(N2CCOCC2)nc2c1c(=O)n(C)c(=O)n2C
- cytotoxicity call (HSkMC): inactive
- cytotoxicity call (HepG2): inactive
- growth inhibition call (S. aureus RN4220): inactive

SMILES: NCc1cccc(Cl)c1
- cytotoxicity call (HSkMC): inactive
- cytotoxicity call (HepG2): inactive
- growth inhibition call (S. aureus RN4220): inactive

SMILES: CC(CCC(=O)O)C1CCC2C3C(=O)CC4CC(=O)CCC4(C)C3CC(=O)C12C (configuration not stated)
- cytotoxicity call (HSkMC): inactive
- cytotoxicity call (HepG2): inactive
- growth inhibition call (S. aureus RN4220): inactive

SMILES: Cc1ccc(-c2cnc3c(c2)C(=O)N([C@@H](C)CO)C[C@H](C)[C@H](CN(C)C(=O)Cc2cccnc2)O3)cc1
- cytotoxicity call (HSkMC): inactive
- cytotoxicity call (HepG2): inactive
- growth inhibition call (S. aureus RN4220): inactive

SMILES: COc1ccc(C(=O)CC(=O)c2ccc(C(C)(C)C)cc2)cc1
- cytotoxicity call (HSkMC): active
- cytotoxicity call (HepG2): inactive
- growth inhibition call (S. aureus RN4220): inactive

SMILES: O=C(O)c1ccc2ccccc2c1
- cytotoxicity call (HSkMC): inactive
- cytotoxicity call (HepG2): inactive
- growth inhibition call (S. aureus RN4220): inactive

SMILES: CO[C@H]1CN(C)C(=O)c2ccc(NS(C)(=O)=O)cc2OC[C@@H](C)N(C(=O)C2CCCCC2)C[C@H]1C
- cytotoxicity call (HSkMC): inactive
- cytotoxicity call (HepG2): inactive
- growth inhibition call (S. aureus RN4220): inactive

SMILES: CCCN(C)C[C@H]1Oc2cc(C#Cc3ccc(OC)cc3)ccc2S(=O)(=O)N([C@@H](C)CO)C[C@H]1C
- cytotoxicity call (HSkMC): inactive
- cytotoxicity call (HepG2): inactive
- growth inhibition call (S. aureus RN4220): inactive

SMILES: Cc1ccc(S(=O)(=O)NC(=O)NN2CC3CCCC3C2)cc1 (configuration not stated)
- cytotoxicity call (HSkMC): inactive
- cytotoxicity call (HepG2): inactive
- growth inhibition call (S. aureus RN4220): inactive

SMILES: COc1ccc2c3c(n(c2c1)C)[C@H](CO)N(C[C@]13CCN(CC1)C(=O)Nc1ccc(cc1)F)C(=O)c1ccc(cc1)F
- cytotoxicity call (HSkMC): inactive
- cytotoxicity call (HepG2): inactive
- growth inhibition call (S. aureus RN4220): inactive

SMILES: NCC[C@H]1CC[C@@H](NC(=O)C2CC2)[C@H](CO)O1
- cytotoxicity call (HSkMC): inactive
- cytotoxicity call (HepG2): inactive
- growth inhibition call (S. aureus RN4220): inactive

SMILES: O=C(Cn1cc(COc2ccc(-n3cccc3)cc2)nn1)NS(=O)(=O)c1cccc(OC(F)F)c1
- cytotoxicity call (HSkMC): inactive
- cytotoxicity call (HepG2): inactive
- growth inhibition call (S. aureus RN4220): inactive

SMILES: O=C(O)c1ccc(-n2nc(-c3ccccc3O)nc2-c2ccccc2O)cc1
- cytotoxicity call (HSkMC): inactive
- cytotoxicity call (HepG2): active
- growth inhibition call (S. aureus RN4220): inactive

SMILES: CC(C)CC#Cc1cnc2c(c1)C(=O)N([C@@H](C)CO)C[C@@H](C)[C@H](CN(C)C(=O)CCN1CCCCC1)O2
- cytotoxicity call (HSkMC): inactive
- cytotoxicity call (HepG2): inactive
- growth inhibition call (S. aureus RN4220): inactive

SMILES: C[C@H](CO)N1C[C@H](C)[C@H](CN(C)Cc2ccccc2)OCCCC[C@H](C)Oc2ccc(NC(=O)NC3CCCCC3)cc2C1=O
- cytotoxicity call (HSkMC): inactive
- cytotoxicity call (HepG2): inactive
- growth inhibition call (S. aureus RN4220): inactive

SMILES: C[C@H]1CN([C@@H](C)CO)C(=O)c2cc(C#CC3(O)CCCC3)cnc2O[C@@H]1CN(C)C(=O)CN(C)C
- cytotoxicity call (HSkMC): inactive
- cytotoxicity call (HepG2): inactive
- growth inhibition call (S. aureus RN4220): inactive

SMILES: COCCOC(=O)N1C(=O)[C@@]2(c3cc(C#CCCO)ccc31)[C@H](c1ccccc1OCCO)N1[C@H](c3ccccc3)[C@H](c3ccccc3)OC(=O)[C@H]1[C@@H]2C(=O)N1CCc2cc(OC)c(OC)cc2C1
- cytotoxicity call (HSkMC): inactive
- cytotoxicity call (HepG2): inactive
- growth inhibition call (S. aureus RN4220): inactive
